# The other results are listed elsewhere or left out.
# Legend:
# Assay in all cases: glycan array binding signal (z-score within array); higher = stronger binding
# Settings in all cases: glycan notation: IUPAC condensed, linker removed
# [1] = biological target: Neu5Ac(a2-6)Gal(b1-3)GlcNAc(b1-3)[Gal(b1-4)GlcNAc(b1-6)]Gal(b1-4)Glc
# How it was run: (§1)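 Glycan array binding is given as a within-array Z-score, which can be read as non-binding when negative. The arrays, 3228 of them, came from the Consortium for Functional Glycomics database and were retained only where the protein sequence was available. Z-scores were averaged across arrays of the same protein sequence at different concentrations or buffers and across linkers.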
# [2] = biological target: Neu5Ac(a2-6)Gal(b1-4)Glc
# How it was run: as §1
# [3] = biological target: Neu5Ac(a2-6)Gal(b1-4)GlcNAc
# How it was run: as §1
# [4] = biological target: Neu5Ac(a2-6)Gal(b1-4)GlcNAc(b1-2)Man
# How it was run: as §1
# [5] = biological target: Neu5Ac(a2-6)Gal(b1-4)GlcNAc(b1-2)Man(a1-3)Man(b1-4)GlcNAc(b1-4)GlcNAc
# How it was run: as §1
# [6] = biological target: Neu5Ac(a2-6)Gal(b1-4)GlcNAc(b1-2)Man(a1-3)[Gal(b1-4)GlcNAc(b1-2)Man(a1-6)]Man(b1-4)GlcNAc(b1-4)GlcNAc
# How it was run: as §1
# [7] = biological target: Neu5Ac(a2-6)Gal(b1-4)GlcNAc(b1-2)Man(a1-3)[GlcNAc(b1-2)Man(a1-6)]Man(b1-4)GlcNAc(b1-4)GlcNAc
# How it was run: as §1
# [8] = biological target: Neu5Ac(a2-6)Gal(b1-4)GlcNAc(b1-2)Man(a1-3)[GlcNAc(b1-4)][Neu5Ac(a2-6)Gal(b1-4)GlcNAc(b1-2)Man(a1-6)]Man(b1-4)GlcNAc(b1-4)GlcNAc
# How it was run: as §1
# [9] = biological target: Neu5Ac(a2-6)Gal(b1-4)GlcNAc(b1-2)Man(a1-3)[Man(a1-6)]Man(b1-4)GlcNAc(b1-4)GlcNAc
# How it was run: as §1
# [10] = biological target: Neu5Ac(a2-6)Gal(b1-4)GlcNAc(b1-2)Man(a1-3)[Neu5Ac(a2-3)Gal(b1-4)GlcNAc(b1-2)Man(a1-6)]Man(b1-4)GlcNAc(b1-4)GlcNAc
# How it was run: as §1
# [11] = biological target: Neu5Ac(a2-6)Gal(b1-4)GlcNAc(b1-2)Man(a1-3)[Neu5Ac(a2-6)Gal(b1-4)GlcNAc(b1-2)Man(a1-6)]Man(b1-4)GlcNAc(b1-4)GlcNAc
# How it was run: as §1
# [12] = biological target: Neu5Ac(a2-6)Gal(b1-4)GlcNAc(b1-2)Man(a1-3)[Neu5Ac(a2-6)Gal(b1-4)GlcNAc(b1-2)Man(a1-6)]Man(b1-4)GlcNAc(b1-4)[Fuc(a1-6)]GlcNAc
# How it was run: as §1
# [13] = biological target: Neu5Ac(a2-6)Gal(b1-4)GlcNAc(b1-2)Man(a1-6)Man(b1-4)GlcNAc(b1-4)GlcNAc
# How it was run: as §1
# [14] = biological target: Neu5Ac(a2-6)Gal(b1-4)GlcNAc(b1-2)Man(a1-6)[Gal(b1-4)GlcNAc(b1-2)Man(a1-3)]Man(b1-4)GlcNAc(b1-4)GlcNAc
# How it was run: as §1
# [15] = biological target: Neu5Ac(a2-6)Gal(b1-4)GlcNAc(b1-2)Man(a1-6)[GlcNAc(b1-2)Man(a1-3)]Man(b1-4)GlcNAc(b1-4)GlcNAc
# How it was run: as §1
# [16] = biological target: Neu5Ac(a2-6)Gal(b1-4)GlcNAc(b1-2)Man(a1-6)[Man(a1-3)]Man(b1-4)GlcNAc(b1-4)GlcNAc
# How it was run: as §1
# [17] = biological target: Neu5Ac(a2-6)Gal(b1-4)GlcNAc(b1-2)[Neu5Ac(a2-6)Gal(b1-4)GlcNAc(b1-4)]Man(a1-3)[GlcNAc(b1-4)][Neu5Ac(a2-6)Gal(b1-4)GlcNAc(b1-2)[Neu5Ac(a2-6)Gal(b1-4)GlcNAc(b1-6)]Man(a1-6)]Man(b1-4)GlcNAc(b1-4)GlcNAc
# How it was run: as §1
# [18] = biological target: Neu5Ac(a2-6)Gal(b1-4)GlcNAc(b1-2)[Neu5Ac(a2-6)Gal(b1-4)GlcNAc(b1-4)]Man(a1-3)[GlcNAc(b1-4)][Neu5Ac(a2-6)Gal(b1-4)GlcNAc(b1-4)Man(a1-6)]Man(b1-4)GlcNAc(b1-4)GlcNAc
# How it was run: as §1
# [19] = biological target: Neu5Ac(a2-6)Gal(b1-4)GlcNAc(b1-2)[Neu5Ac(a2-6)Gal(b1-4)GlcNAc(b1-6)]Man(a1-6)[Neu5Ac(a2-6)Gal(b1-4)GlcNAc(b1-2)Man(a1-3)][GlcNAc(b1-4)]Man(b1-4)GlcNAc(b1-4)GlcNAc
# How it was run: as §1
# [20] = biological target: Neu5Ac(a2-6)Gal(b1-4)GlcNAc(b1-3)Gal(b1-3)GlcNAc
# How it was run: as §1
# [21] = biological target: Neu5Ac(a2-6)Gal(b1-4)GlcNAc(b1-3)Gal(b1-4)GlcNAc
# How it was run: as §1
# [22] = biological target: Neu5Ac(a2-6)Gal(b1-4)GlcNAc(b1-3)Gal(b1-4)GlcNAc(b1-2)Man(a1-3)[Neu5Ac(a2-6)Gal(b1-4)GlcNAc(b1-3)Gal(b1-4)GlcNAc(b1-2)Man(a1-6)]GalNAc
# How it was run: as §1
# [23] = biological target: Neu5Ac(a2-6)Gal(b1-4)GlcNAc(b1-3)Gal(b1-4)GlcNAc(b1-3)Gal(b1-4)GlcNAc
# How it was run: as §1
# [24] = biological target: Neu5Ac(a2-6)Gal(b1-4)GlcNAc(b1-3)Gal(b1-4)GlcNAc(b1-3)Gal(b1-4)GlcNAc(b1-2)Man(a1-3)[Neu5Ac(a2-6)Gal(b1-4)GlcNAc(b1-3)Gal(b1-4)GlcNAc(b1-3)Gal(b1-4)GlcNAc(b1-2)Man(a1-6)]GalNAc
# How it was run: as §1
# [25] = biological target: Neu5Ac(a2-6)Gal(b1-4)GlcNAc(b1-3)Gal(b1-4)GlcNAc(b1-3)GalNAc
# How it was run: as §1
# [26] = biological target: Neu5Ac(a2-6)Gal(b1-4)GlcNAc(b1-3)Gal(b1-4)GlcNAc(b1-3)[Neu5Ac(a2-6)Gal(b1-4)GlcNAc(b1-3)Gal(b1-4)GlcNAc(b1-6)]GalNAc
# How it was run: as §1
# [27] = biological target: Neu5Ac(a2-6)Gal(b1-4)GlcNAc(b1-3)Gal(b1-4)GlcNAc(b1-6)[Gal(b1-3)]GalNAc
# How it was run: as §1
# [28] = biological target: Neu5Ac(a2-6)Gal(b1-4)GlcNAc(b1-3)Gal(b1-4)[Fuc(a1-3)]GlcNAc(b1-3)Gal(b1-4)[Fuc(a1-3)]GlcNAc
# How it was run: as §1
# [29] = biological target: Neu5Ac(a2-6)Gal(b1-4)GlcNAc(b1-3)GalNAc
# How it was run: as §1
# [30] = biological target: Neu5Ac(a2-6)Gal(b1-4)GlcNAc(b1-3)[Neu5Ac(a2-6)Gal(b1-4)GlcNAc(b1-6)]GalNAc
# How it was run: as §1
# [31] = biological target: Neu5Ac(a2-6)Gal(b1-4)GlcNAc(b1-6)GalNAc
# How it was run: as §1
# [32] = biological target: Neu5Ac(a2-6)Gal(b1-4)GlcNAc(b1-6)[Gal(b1-3)GlcNAc(b1-3)]Gal(b1-4)Glc
# How it was run: as §1
# [33] = biological target: Neu5Ac(a2-6)Gal(b1-4)GlcNAc(b1-6)[Gal(b1-3)]GalNAc
# How it was run: as §1
# [34] = biological target: Neu5Ac(a2-6)Gal(b1-4)GlcNAc6S
# How it was run: as §1
# [35] = biological target: Neu5Ac(a2-6)GalNAc
# How it was run: as §1
# [36] = biological target: Neu5Ac(a2-6)GalNAc(b1-4)GlcNAc
# How it was run: as §1
# [37] = biological target: Neu5Ac(a2-6)GalNAc(b1-4)GlcNAc6S
# How it was run: as §1
# [38] = biological target: Neu5Ac(a2-6)GlcNAc(b1-4)GlcNAc
# How it was run: as §1
binder,measurement,setting,value
Si Bti9 1b-HA (Solanum lycopersicum) (protein) MFESRPRSVLSLGVFVILVYLSSVPLPVNSQCNRGCDLALASFYVWRGSNLTLISEMFSTSIADIVSYNNRDNIPNQDSVIAGTRINIPFRCDCLNDGEVLGHAFPYRVKSGDTYDLVARNYSDLTTAQWMMKFNSYPENNIPNTVNLSVVVNCSCGNSDVSKDFGLFVTYPVRAEDNLTSVASAANVSEDIIRRYNPAAVSILDIGQGIIYIPGRDRNGNFPPLPTSTDGLSGGAKAPLFFNPAFLYKVVELKLAGRSRTSGYPYDVPDYAGYPYDVPDYALEVLFQ,glycan array binding signal (z-score),[1],-0.236
same,glycan array binding signal (z-score),[2],-0.207
same,glycan array binding signal (z-score),[3],-0.275
same,glycan array binding signal (z-score),[4],-0.37
same,glycan array binding signal (z-score),[5],-0.381
same,glycan array binding signal (z-score),[6],-0.536
same,glycan array binding signal (z-score),[7],-0.361
same,glycan array binding signal (z-score),[8],-0.539
same,glycan array binding signal (z-score),[9],-0.349
same,glycan array binding signal (z-score),[10],-0.131
same,glycan array binding signal (z-score),[11],-0.244
same,glycan array binding signal (z-score),[12],-0.398
same,glycan array binding signal (z-score),[13],-0.388
same,glycan array binding signal (z-score),[14],-0.493
same,glycan array binding signal (z-score),[15],0.093
same,glycan array binding signal (z-score),[16],-0.33
same,glycan array binding signal (z-score),[17],-0.171
same,glycan array binding signal (z-score),[18],-0.262
same,glycan array binding signal (z-score),[19],-0.289
same,glycan array binding signal (z-score),[20],-0.167
same,glycan array binding signal (z-score),[21],-0.295
same,glycan array binding signal (z-score),[22],0.677
same,glycan array binding signal (z-score),[23],-0.187
same,glycan array binding signal (z-score),[24],2.19
same,glycan array binding signal (z-score),[25],-0.106
same,glycan array binding signal (z-score),[26],-0.228
same,glycan array binding signal (z-score),[27],-0.12
same,glycan array binding signal (z-score),[28],-0.437
same,glycan array binding signal (z-score),[29],0.739
same,glycan array binding signal (z-score),[30],-0.425
same,glycan array binding signal (z-score),[31],0.381
same,glycan array binding signal (z-score),[32],0.158
same,glycan array binding signal (z-score),[33],-0.186
same,glycan array binding signal (z-score),[34],-0.22
same,glycan array binding signal (z-score),[35],-0.245
same,glycan array binding signal (z-score),[36],-0.555
same,glycan array binding signal (z-score),[37],0.009
same,glycan array binding signal (z-score),[38],-0.447
